# Among all 55,000 compounds or so, about 530 (0.96%) were called active. The inconclusive results got no clear call from the source; some entries with a clear call stand among them for comparison. Calls follow the shape of the dose curve; as a rule, active = well fitted cell-killing curve with a large enough effect; inconclusive = small, poorly fitted or top-dose-only effect; inactive = no such curve, though single readings can be large or run the other way. Potencies beside an inconclusive call are fits to weak or partial responses and may not hold up.
# Test: qHTS Screen for Compounds that Selectively Target Cancer Cells with p53 Mutations: Cytotoxicity of p53 Null Cells at the Nonpermissive Temperature; also: nearly all actives have a fitted effect of over 50% in size;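 as to activity, negative = cell killing: 0% = DMSO only and -100% = full killing by 100 µM tamoxifen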
# Conditions: H1299 p53-null (neo) cells, 39C, ATPlite viability, 24 h; activity, negative = cell killing: at 46.1 µM (top of the series)
# Procedure, shortened: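 Concentration-response (up to 46 uM) was run for 24 h at the nonpermissive 39C on H1299-p53A138V or H1299-neo cells. ATP content was measured with ATPlite luminescence. AC50 values were Hill-modeled after normalizing between DMSO and 100 uM tamoxifen killing.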
# Potency is read from the fitted curve at half-maximal effect; tags tell the direction and shape of the fitted curve.
Structure (SMILES),Potency,"activity, negative = cell killing"
CCN(CC)CCCNC(=O)c1ccc(Cn2c(SCc3ccccc3)nc3cccnc32)cc1,"inconclusive: 11.2 µM [cytotoxic, partial curve]",–
CCC(C(=O)Nc1ccccc1OC)n1c(C(=O)OC)cc2sc(Cl)cc21 (stereo not given),"inconclusive: 14.1 µM [cytotoxic, single point]",–
COc1ccc(CCNC(=O)/C(C#N)=C2\N=C(NC(=O)c3cccs3)c3ccccc32)cc1,–,inactive: -0.547%
CCc1nnc(SCC(=O)Nc2cccc(C(F)(F)F)c2)c2cc3oc(C)cc3n12,"inconclusive: 0.0794 µM [cytotoxic, partial curve]",–
CC(=O)c1ccc(NC(=O)CSc2ccc3nnc(CCNS(=O)(=O)c4ccc(C)cc4)n3n2)cc1,"inconclusive: 7.94 µM [cytotoxic, partial curve, poor fit]",–
CCOC(=O)Cc1csc(NC(=O)Nc2ccccc2)n1,"inconclusive: 12.6 µM [cytotoxic, single point]",–
CC(=O)Nc1c(C)nn(-c2ccccc2)c1N1CCC(C(=O)NCc2ccc(F)cc2)CC1,"inconclusive: 0.01 µM [cytotoxic, full curve, poor fit]",–
Cc1cc(C)cc(-n2c(SCC(=O)N3CCCCCC3)nc3c([nH]c4ccccc43)c2=O)c1,–,inactive: 17.8%
CCc1ccc(OCC(=O)N/N=C(\C)c2ccc(-n3ccnc3)cc2)cc1,"inconclusive: 15.8 µM [cytotoxic, single point]",–
CCOC(=O)N1CCc2c(sc(NCc3cccs3)c2C(=O)Nc2ccc(OC)cc2OC)C1,–,inactive: -14.4%
Cc1cc2c(cc1S(=O)(=O)CCC(=O)N1CCCCC1C)OCC(=O)N2 (stereo not given),"inconclusive: 0.631 µM [cytotoxic, full curve, poor fit]",–
Cc1ccc(C)c(Nc2nn3c(=O)c4cc5c(cc4nc3s2)OCO5)c1,–,inactive: -15.8%
CC(C)c1ccc(NC(=O)c2ccc3c(O)c(S(=O)(=O)c4ccccc4)c(=O)[nH]c3c2)cc1,active: 7.94 µM,–
O=C(Cn1c(SCC(=O)Nc2ccc(F)cc2)nc2ccccc21)NCc1ccccc1Cl,"inconclusive: 15.8 µM [cytotoxic, partial curve, poor fit]",–
CCCCOC(=O)c1cccc(NC(=O)/C=C/c2ccccc2Cl)c1,"inconclusive: 6.31 µM [cytotoxic, partial curve]",–
N#Cc1c(C(F)(F)F)cc(-c2cccs2)nc1SCC(=O)Nc1cccc(C(F)(F)F)c1,"inconclusive: 25.1 µM [cytotoxic, single point]",–
COc1ccc(NC(=O)C2CCN(S(=O)(=O)c3ccc4c(c3)CCCC(=O)N4)CC2)c(OC)c1,–,inactive: -8.99%
O=C(NCC(c1cccnc1)N1CCc2ccccc21)c1ccc(F)cc1 (stereo not given),"inconclusive: 12.6 µM [cytotoxic, single point]",–
Cc1ccc(NC(=O)c2ccc(CNS(=O)(=O)c3ccc4c(c3)C(C)(C)C(=O)N4C)cc2)cc1F,–,inactive: -12.8%
CCc1ccccc1NC(=O)Cn1c(SCc2ccc(F)cc2)nc2ccncc21,"inconclusive: 6.31 µM [cytotoxic, partial curve]",–

Structure (SMILES),Potency,"activity, negative = cell killing"
CCc1nn(CC(=O)Nc2ccc(NC(C)=O)cc2)c(=O)c2cc3sccc3n12,–,inactive: -15.2%
O=C(CNC(=O)c1cccs1)c1ccc(F)cc1,"inconclusive: 10 µM [cytotoxic, single point]",–
COc1ccccc1CNc1ncnc2c1cnn2-c1ccc(C)cc1,–,inactive: 13.9%
CC(C)(C)C(=O)NCC12C=CC(O1)C1C(=O)N(c3ccccc3)C(=O)C12 (stereo not given),–,inactive: -18.3%
COc1ccc(Cn2c(C(=O)O)c(CNCc3ccc(SC)cc3)c3ccc(OC)cc32)cc1,"inconclusive: 0.158 µM [cytotoxic, full curve, poor fit]",–
O=C(O)c1ccc(Cn2c(SCc3ccc(F)cc3)nc3ccncc32)cc1,"inconclusive: 15.8 µM [cytotoxic, single point]",–
Cc1cccc(-c2nc(CN3CCCC(C(=O)NCCc4ccc(Cl)cc4)C3)c(C)o2)c1 (stereo not given),"inconclusive: 31.6 µM [cytotoxic, single point]",–
O=C(Cn1ncc2c3ccccc3n(Cc3ccc(F)cc3)c2c1=O)NCc1ccccn1,"inconclusive: 12.6 µM [cytotoxic, single point]",–
O=C(Nc1cccc(F)c1)N1CC=C(n2c(=O)[nH]c3ccccc32)CC1,"inconclusive: 0.0562 µM [cytotoxic, full curve]",–
CCC1CN(C(=O)N2CCC(C(=O)N3CCN(c4ccccc4F)CC3)CC2)c2ccccc2O1 (stereo not given),–,inactive: -16.5%
Cc1cccc(CNC(=O)CCCN2C(=O)CCn3nc(-c4cccn4C)cc32)c1,"inconclusive: 0.282 µM [cytotoxic, full curve, poor fit]",–
CCc1cccc(C)c1Nc1c(-c2ccsc2)nc2ncccn12,"inconclusive: 35.5 µM [cytotoxic, partial curve, poor fit]",–
O=C(Cn1c(=O)nc(-c2ccccc2F)c2cc(Cl)ccc21)NCCCc1ccccc1,"inconclusive: 15.8 µM [cytotoxic, single point]",–
COc1cccc(-c2noc(-c3cc(C(C)C)[nH]n3)n2)c1OC,"inconclusive: 31.6 µM [cytotoxic, single point]",–
Cc1cc(C)cc(NC(=O)c2c(C)oc3nc(C)nc(N4CCCC4)c23)c1,"inconclusive: 0.1 µM [cytotoxic, full curve, poor fit]",–
COC(=O)c1ccc(Cn2c(SCc3ccc(F)cc3)nc3ccncc32)cc1,"inconclusive: 25.1 µM [cytotoxic, partial curve]",–
CCc1ccc(NC(=O)Cn2cc(S(=O)(=O)c3ccc(F)cc3)c(=O)c3cc(OC)ccc32)cc1,"inconclusive: 31.6 µM [cytotoxic, single point]",–
COc1cc(CNCCSc2nnnn2C)ccc1OCc1ccc(Cl)cc1Cl,"inconclusive: 25.1 µM [cytotoxic, single point]",–
Clc1ccc(NCc2nc3ccccc3n2CCOc2ccccc2)cc1,"inconclusive: 14.1 µM [cytotoxic, partial curve, poor fit]",–
O=C(NCCc1ccccc1)c1ccc(Cn2c(SCc3ccccc3)nc3cccnc32)cc1,"inconclusive: 6.31 µM [cytotoxic, partial curve]",–

# Source: PubChem BioAssay AID904 (National Center for Advancing Translational Sciences (NCATS), 2007)
